Measured values reported in the supplement of paper PMC11417369.
± gives the standard deviation of the averaged measurements. This is one part of the list.

Tested on: PfAP2-G AP2 domain (GST-tagged)
Assay: gcPBM binding intensity (ln(normalized median fluorescence intensity)); higher = stronger DNA binding
Outline: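 Binding intensity is the highest Masliner-normalised natural-log median intensity over replicate spots in either probe orientation. To obtain it, GST-tagged P. falciparum DNA-binding domains made in E. coli were incubated for 1 h on an Agilent 4 × 180k array of primer-extended double-stranded 36-bp intergenic genomic probes plus negative controls. Detection used Alexa488 anti-GST antibody with scanning at 488 nm.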

| Sequence | gcPBM binding intensity (ln) |
| --- | --- |
| ATAGTCTTAATGACTACACACCTAACTATGCATGCA [CACACA_site5084] | 9.88 |
| ATACAGTTGCATATGGTGCACGAATAATACACCTAT | 10.4 ± 0.2 |
| TGGTAGTATATCATAGAAATCATTGTATAACAAATA [XGTACX_negctrl_site569] | 9.915 ± 0.035 |
| AAAAAAAAAAAAAAAACACACAAATCATAAATAAAT [CACACA_site478] | 10.3 ± 0.42 |
| AAATAATATTTTTTTTTTTTTTTTTTTTTATGTTAT [CACACA_negctrl_site809] | 9.45 ± 0.028 |
| TGTATTATATATACACAAATATTTATGTGTGTGTTT [XGTACX_negctrl_site475] | 10.1 ± 0.11 |
| TTTTTTTGTATTTGTTTATTTAATGATAAAATTAAA [CACACA_negctrl_site225] | 10 ± 0.3 |
| ATTTTTCTTTTTAATACACACAAAAGTGATACAAAC [CACACA_site3923] | 10.4 ± 0.35 |
| ACATATATATATTCTACACACTTATAATATAATACA [CACACA_site2461] | 10.2 ± 0.16 |
| TTGTTCTATTTAAGTAGTACATACACACACATATAC [XGTACX_site8484] | 11.5 ± 0.71 |
| ACTAAACTAATATGTACACACATATAACATTAATTT [CACACA_site7128] | 11.4 ± 0.93 |
| TTTCGTTCATAAAAAAGTACATATGAGCAAAAGGTA [XGTACX_site8936] | 11.5 ± 1.1 |
| TATATATATATATATAGTACATATTTATATATGAAA [XGTACX_site8488] | 10.8 ± 0.57 |
| GAATTAAAATAATACGTACACACATGTATAATACAT [CACACA_site1004] | 11.7 ± 1.2 |
| CACAATACTTTCATCACACATATATATATATATATA [CACACA_site4677] | 10.2 ± 0.26 |
| ACCCATTGCTCACGTGCACACATAGAAAAATAATTC [CACACA_site4389] | 10.8 ± 0.58 |
| ATAACATAAGGAAATACACACATATATAAGTATATA [CACACA_site778] | 10.02 ± 0.021 |
| TATGTATATATTTACGCATGCTACTCTATTTTGAGA [TGCATGCA_site990] | 9.76 ± 0.26 |
| AAAAAATTATACCTTTGTACATAAATAAAATATTAT [XGTACX_site418] | 10.9 ± 0.65 |

| Sequence | gcPBM binding intensity (ln) |
| --- | --- |
| AAGATTACTTATATATGTACACATAATACAAATGTC [XGTACX_site520] | 11.4 ± 0.83 |
| TCTGTTAATATTTATACACACATATATATATATATA [CACACA_site1139] | 10.2 ± 0.5 |
| AATAAAAGAAGACAGAGTACACAGGTTGTATTTTCC [XGTACX_site7208] | 11.4 ± 0.84 |
| TGTGCATAAATTTATGCACACATAAAAAAAAAAAAA [CACACA_site8954] | 10.2 ± 0.48 |
| ATAATATATACTATATGTACATATCTTTTCCTCTTT [XGTACX_site5553] | 10.9 ± 0.49 |
| TTTTTCATAAAAAAATAAAAAAAATTAACATAGAAA [XGTACX_negctrl_site11] | 9.95 ± 0.26 |
| TTTTAGAGTGGTATATATTAATTTTTAATAAAAAAA [CACACA_negctrl_site1652] | 10.1 ± 0.23 |
| TATGTATTTTTTAAGTGTACCTATATATATATATAT [XGTACX_site7934] | 11.2 ± 0.86 |
| TGGGAAGGGTGGGAAACTTTATCAAAAACTTATTAC [GTGCAC_negctrl_site16] | 10.3 ± 0.23 |
| TATAATAATAATTATTGTACGATTAGGTTAATTCAT [XGTACX_site1984] | 11.1 ± 0.7 |
| AGAAAGGTGGTATTAAAAGAATAACCTATGAATAAA [GTGCAC_negctrl_site325] | 10.3 ± 0.38 |
| ATAGTATCTGGTAGCTGTACGAGTCGTAGAGTGTAG [XGTACX_site2030] | 11.3 ± 0.83 |
| TATATTGAAAATAAAACATGCAATCACTCATACATA [TGCATGCA_site248] | 9.75 ± 0.071 |
| CAACAATTTCGTCATACACACATTCAGAATCTATAT [CACACA_site7171] | 10.2 |
| ATGTACCTATTTCATACACACACACCCACAAACAAA [CACACA_site8232] | 11.4 ± 1 |
| TTTTTTTAACGGTGTGCACACAATATACAGAAAAAA [CACACA_site1415] | 10.8 ± 0.35 |
| TATATACATTTATATACACACCTATATTTATTTATA [CACACA_site7014] | 9.95 ± 0.057 |
| ATTATATATATTTATGCACACAAAATATATTATATA [CACACA_site9244] | 10.1 ± 0.3 |
| AAAATATAATATATTACACACATATATTTTATAAGT [CACACA_site668] | 9.79 ± 0.12 |

| Sequence | gcPBM binding intensity (ln) |
| --- | --- |
| TATACATTTATGTACACACACATATAGGTATATTTA [CACACA_site7408] | 11.5 ± 0.8 |
| TATGTTGGTTCTTTTAGTACATAATTACTAAATGTA [XGTACX_site8616] | 11.1 ± 0.79 |
| AAAACATACATATATACACACATATATATATATATA [CACACA_site1852] | 10 ± 0.28 |
| CAAACTACAAAATTTCGTACGCATATATTTCAAGTA [XGTACX_site5154] | 11.1 ± 0.7 |
| TTTAAACGTTATATAGTGCATGTCATATTTTATTAT | 9.85 ± 0.014 |
| TACGTAATAATATGCACACAAATAAACTTTATAAAT [CACACA_site3501] | 10.2 ± 0.26 |
| CAAAAAAGTAAAACGTGTACATATATACATAAAAAT [XGTACX_site5639] | 11.5 ± 0.81 |
| CTTTTTTATATCTCTACACACATTTATAACAATTTG [CACACA_site1398] | 10.14 ± 0.057 |
| GGCAATGATTTTAGGTGTACTTAAAAATCAAATTAA [XGTACX_site8587] | 11.5 ± 0.95 |
| ATTCTAATCATATACACACCCATATATATATATATA [CACACA_site1774] | 10.1 ± 0.15 |
| TGCACAAAATTATGCACACACCTAAAATTAATTTTT [CACACA_site5596] | 10.2 ± 0.21 |
| TAATTTCTTATGTGCTATCTTATATAGAATTAATTT [CACACA_negctrl_site1726] | 10 ± 0.11 |
| TATAAAAAATAAAATACACACACATATATATATATA [CACACA_site8365] | 9.95 ± 0.3 |
| ATGGCTAAAAGTTGCACACACACAAAAAAAAAAAAA [CACACA_site3289] | 10.2 ± 0.55 |
| AGCAGTCAGCAGGACAGTACACAGTAGCCAGGAAAT [XGTACX_site4877] | 11.1 ± 0.67 |
| AAAAAAAAAATTTAGGTGCATACAAATAAATTATAT [GTGCAC_site9521] | 9.725 ± 0.007 |
| GGCATACACGGACACACACACACACCGACATATATA [CACACA_site4493] | 11.3 ± 0.88 |
| ATTATATAACAAAATAGTACATATATTTATTACATC [XGTACX_site336] | 11.1 ± 0.76 |
| TATATATTAATATGCACACACAAGAAGTAATTATAA [CACACA_site3193] | 10.3 ± 0.13 |
